# Some of the results follow.
# B1: PhoQ; a variant is named by its letters at X, in order, P23837 (parent)
# chain: MKKLLRLFFPLSLRVRFLLATAAVVLVLSLAYGMVALIGYSVSFDKTTFRLLRGESNLFYTLAKWENNKLHVELPENIDKQSPTMTLIYDENGQLLWAQRDVPWLMKMIQPDWLKSNGFHEIEADVNDTSLLLSGDHSIQQQLQEVREDDDDAEMTHSVAVNVYPATSRMPKLTIVVVDTIPVELKSSYMVWSWFIYVLSANLLLVIPLLWVAAWWSLRPIEALAKEVRELEEHNRELLNPATTRELTSLVRNLNRLLKSERERYDKYRTTLTDLTHSLKTPLXXLQXXLRSLRSEKMSVSDAEPVMLEQISRISQQIGYYLHRASMRGGTLLSRELHPVAPLLDNLTSALNKVYQRKGVNISLDISPEISFVGEQNDFVEVMGNVLDNACKYCLEFVEISARQTDEHLYIVVEDDGPGIPLSKREVIFDRGQRVDTLRPGQGVGLAVAREITEQYEGKIVAGESMLGGARMEVIFGRQHSAPKDE
# Variants of: B1
# Assay: enrichment ratio after two sorts for PhoP signalling (ratio (wild type AVST 3.29)); higher = more functional
# Conditions: with PhoP (E. coli)
row,Variant,enrichment ratio
1,GAIP,≤ 0.25
2,RYVE,≤ 0.25
3,FYVC,≤ 0.25
4,YYVG,0.542
5,LKSE,≤ 0.25
6,MPAS,≤ 0.25
7,YKFA,≤ 0.25
8,HKPE,≤ 0.25
9,IHSI,≤ 0.25
10,MHLQ,≤ 0.25
11,SKHD,≤ 0.25
12,GMWL,≤ 0.25
13,PADA,≤ 0.25
14,HTWM,≤ 0.25
15,RRHN,≤ 0.25
16,HNIP,≤ 0.25
17,PAAQ,≤ 0.25
18,IIGK,≤ 0.25
19,KVGD,≤ 0.25
20,RSED,≤ 0.25
21,QITD,≤ 0.25

row,Variant,enrichment ratio
1,YNQY,≤ 0.25
2,AQAI,4.81
3,NEPL,≤ 0.25
4,LIVY,≤ 0.25
5,QQYS,6.64
6,PRCY,≤ 0.25
7,ARMA,≤ 0.25
8,ENGG,≤ 0.25
9,KWPR,≤ 0.25
10,QFTY,≤ 0.25
11,TNIM,≤ 0.25
12,QAKV,≤ 0.25
13,GHKC,≤ 0.25
14,IREN,≤ 0.25
15,MSSF,0.41
16,SFHI,≤ 0.25
17,YPDP,≤ 0.25
18,NSSI,≤ 0.25
19,INGR,≤ 0.25
20,SSYL,3.15
21,GPYW,≤ 0.25

row,Variant,enrichment ratio
1,RQCA,≤ 0.25
2,SHEM,≤ 0.25
3,MRQH,≤ 0.25
4,KKCA,≤ 0.25
5,KFAD,≤ 0.25
6,MMCT,≤ 0.25
7,RVLR,≤ 0.25
8,HQMY,≤ 0.25
9,SPDD,≤ 0.25
10,TCFN,≤ 0.25
11,LGPK,≤ 0.25
12,AYHG,≤ 0.25
13,QRIH,≤ 0.25
14,YITR,0.319
15,HGME,≤ 0.25
16,KKKS,≤ 0.25
17,NLTV,≤ 0.25
18,NDYM,≤ 0.25
19,VQRT,≤ 0.25
20,VPCS,≤ 0.25
21,MHWY,≤ 0.25

row,Variant,enrichment ratio
1,FKMD,≤ 0.25
2,MQSY,≤ 0.25
3,QFSD,≤ 0.25
4,MFQP,≤ 0.25
5,DHSQ,≤ 0.25
6,NEWA,≤ 0.25
7,IAHH,≤ 0.25
8,WLPV,≤ 0.25
9,VQLI,1.37
10,LTGN,≤ 0.25
11,NMCY,≤ 0.25
12,MYFR,≤ 0.25
13,SWWS,≤ 0.25
14,NLNL,≤ 0.25
15,RRTY,≤ 0.25
16,KHQL,≤ 0.25
17,WSRL,≤ 0.25
18,GPRR,≤ 0.25
19,VKWC,≤ 0.25
20,KGMD,≤ 0.25
21,HKNP,≤ 0.25

# From a collection of fitness landscapes (doi:10.1126/science.1257360)
